Measured values: the supplement of paper PMC3334620
Over roughly 33,000 sequences, “E-score (-0.5 to 0.5)” has its median near -0.021; the highest 2% begin near 0.32. The list shows a part of the results.

Each sequence was assayed against T1, Zap1 (UniProt P47043) (assay: PBM E-score (8-mer binding enrichment) (E-score (-0.5 to 0.5)); higher = stronger / more preferred TF binding; most listed sequences are background and not binding sites). Settings: protein concentration: 200 nM; construct: GST-full length.
T1 sequence: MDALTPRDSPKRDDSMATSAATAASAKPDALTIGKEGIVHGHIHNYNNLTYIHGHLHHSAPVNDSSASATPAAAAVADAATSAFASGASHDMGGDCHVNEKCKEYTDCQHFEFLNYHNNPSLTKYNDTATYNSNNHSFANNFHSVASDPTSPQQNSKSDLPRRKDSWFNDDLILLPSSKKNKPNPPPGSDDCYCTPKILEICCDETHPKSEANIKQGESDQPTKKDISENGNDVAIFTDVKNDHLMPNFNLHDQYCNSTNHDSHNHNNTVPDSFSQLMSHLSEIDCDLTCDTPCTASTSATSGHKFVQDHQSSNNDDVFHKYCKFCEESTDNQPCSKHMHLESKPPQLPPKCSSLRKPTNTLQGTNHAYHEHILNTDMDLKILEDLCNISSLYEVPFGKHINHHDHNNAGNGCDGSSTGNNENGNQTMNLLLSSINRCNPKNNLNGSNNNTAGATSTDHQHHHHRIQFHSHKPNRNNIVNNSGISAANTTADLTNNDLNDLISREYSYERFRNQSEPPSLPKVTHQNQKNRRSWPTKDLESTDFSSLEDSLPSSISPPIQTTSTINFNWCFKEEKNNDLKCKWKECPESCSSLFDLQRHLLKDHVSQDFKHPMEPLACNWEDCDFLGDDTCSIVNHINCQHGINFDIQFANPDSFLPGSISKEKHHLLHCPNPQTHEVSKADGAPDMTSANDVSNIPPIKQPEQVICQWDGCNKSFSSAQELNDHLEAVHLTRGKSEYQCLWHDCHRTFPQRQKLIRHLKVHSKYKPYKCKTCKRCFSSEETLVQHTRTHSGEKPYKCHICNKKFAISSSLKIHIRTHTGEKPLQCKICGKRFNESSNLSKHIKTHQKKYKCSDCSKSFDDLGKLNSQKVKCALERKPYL
Protocol: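 Universal 'all 10-mer' protein binding microarrays (Agilent AMADID 015681) probed with GST-tagged S. cerevisiae TFs (full-length or DBD) made by in vitro transcription/translation (PURExpress), about 100-200 nM. Bound TF was detected with fluorescent anti-GST. Each ungapped 8-mer (which stands for itself and its reverse complement) is scored by the PBM enrichment score (E-score), a modified Wilcoxon-Mann-Whitney statistic from -0.5 to +0.5, computed with the Universal PBM Analysis Suite. Scale: above 0.35 generally sequence-specific binding.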

Row | Sequence | PBM E-score
1 | AAATACCA | 0.129
2 | GAAGCTAC | -0.06
3 | TGTCCTAA | 0.153
4 | AGAGTATC | -0.0558
5 | GGATGGCA | -0.116
6 | GGCTTACA | -0.139
7 | AAGGGACA | 0.0317
8 | TACGTATA | -0.0338
9 | GGGGCGAA | -0.12
10 | ACTGTGCG | -0.0601
11 | ACCTCCGA | 0.046
12 | ATTGTGTG | -0.0759
13 | ACCGGTGA | 0.0524
14 | AGGTTTTG | 0.201
15 | CCCACACG | 0.0302
16 | CACCCCCG | -0.111
17 | CCATTACG | 0.0617
18 | ATCTACCC | 0.126
19 | GCCCTCCA | -0.0877
20 | ACAACTGA | 0.0204
21 | ACAACTCT | 0.0818
22 | CATACTAG | 0.0924

Row | Sequence | PBM E-score
23 | ATGTTGCG | -0.0348
24 | AGGTACCA | 0.347
25 | AGATCAAC | 0.103
26 | ATCTAAGC | -0.0856
27 | ATCCAACA | 0.0629
28 | CCTGTATC | 0.0072
29 | GCCGAGTA | -0.224
30 | AAGGGAAA | -0.126
31 | CCGAAGCG | -0.14
32 | ACGAGGCC | -0.124
33 | AACGGGGG | -0.215
34 | ATGGTGTG | 0.00296
35 | GCTTTCAC | -0.0892
36 | ACTTCCAC | -0.0819
37 | GGGCCGGA | -0.0664
38 | GGTGCAAA | 0.101
39 | ATACCAGA | 0.187
40 | ACCAGACG | 0.0138
41 | GTTAAAGA | 0.107
42 | AATCAGGC | -0.193
43 | ACCCTCCT | 0.189
44 | GATTGAGC | -0.0519

Row | Sequence | PBM E-score
45 | CAGTAGCA | -0.278
46 | ACGTACGA | -0.267
47 | CAGCCGTA | -0.0354
48 | ATGGCGAG | -0.134
49 | AGCCCGTG | -0.306
50 | CACGATGA | 0.00522
51 | AGTATGGA | 0.062
52 | ACGTGTCC | -0.277
53 | CTAGCTGA | -0.0712
54 | TGCGGGAA | -0.0562
55 | AGTTATCC | 0.0893
56 | GCTCAACC | 0.0304
57 | GAAATTGA | -0.083
58 | AAGAGAAA | -0.215
59 | AGTAAGAA | 0.125
60 | GCATTCTA | -0.0447
61 | AAAGCACG | -0.198
62 | CGAAAGGA | 0.0646
63 | CACCCCCA | -0.101
64 | AAGACCTG | -0.0707
65 | AAAGCGAG | 0.0285
66 | CCAAACAC | 0.0562

Row | Sequence | PBM E-score
67 | GCGTGGGA | -0.0491
68 | AATACCAG | 0.15
69 | AACCGCTG | 0.176
70 | CGCACATC | -0.183
71 | CTCTCGTC | -0.163
72 | ATATCGTG | -0.0368
73 | AATGGCCG | -0.0971
74 | AAGGAACA | 0.17
75 | GAAGTGCC | -0.159
76 | GGGATTAC | -0.0005
77 | GTCATCCA | 0.0621
78 | ATTCGGCC | -0.132
79 | TATGCATA | -0.009
80 | TGGTTAAA | 0.379
81 | CTCAGAGA | -0.119
82 | CATTTAGA | 0.0369
83 | ACTTTCCA | 0.047
84 | GTGAATAA | 0.153
85 | ATGCTTTG | -0.137
86 | CGTAAAAA | 0.031
87 | AGACACAA | 0.136
88 | AGGACCCT | 0.226

Row | Sequence | PBM E-score
89 | ATAATTAT | 0.19
90 | CCTCTACC | 0.108
91 | ACCTTTCT | 0.372
92 | CTTGTGCC | -0.0484
93 | ATAAATGC | 0.0394
94 | ACAGAGGG | -0.0722
95 | ATTGTATC | -0.147
96 | CCCCAGGC | -0.275
97 | ATCAACCG | 0.0133
98 | CTCACGGA | -0.112
99 | ATTGGGAC | 0.214
100 | ACACTGCC | 0.0346
101 | ACGCGAGT | 0.151
102 | GGTCGACA | 0.0391
103 | CATAGCAG | -0.29
104 | AGGTCTAG | -0.0206
105 | AGATATAG | 0.14
106 | GATACCAC | 0.183
107 | ACGAGCTC | -0.157
108 | TGTCTGAA | -0.0114
109 | ATAGTGTA | -0.0725
110 | GGGATACC | 0.203
